The text below walks through data of the antibiotic and cytotoxicity screens of Wong et al. (2023).

This is one part of the list.

This assay has as its system S. aureus RN4220. The experiment in a line: growth inhibition call (relative growth <= 0.2). Particulars: 50 µM.
For `O=C1CO[C@H]2CNC[C@@H]2N1CC1CCCC1`, the growth inhibition call is “inactive”.

As for `CC1=C[C@H]2[C@]3(O)[C@H](C=C(CO)C[C@]2(O)C1=O)[C@H]1C(C)(C)[C@@]1(O)[C@H](O)[C@@H]3C`, the growth inhibition call was “inactive”.

As for `CN(C)C(=O)[C@]1(Cc2ccccc2CN=[N+]=[N-])N=C(c2ccc(OCCCO)cc2)O[C@@H]1c1ccccc1N=[N+]=[N-]`, the growth inhibition call is “inactive”.

For `O=C(NC(=O)c1ccccc1Cl)Nc1ccc(OC(F)(F)F)cc1`, the growth inhibition call is “inactive”.

In the case of `O=C(c1ccno1)N1C[C@@H]2CCN[C@@H]2C1`, the growth inhibition call was “inactive”.

With `CC(=O)O.Cc1cc2c(C(C)C)c(O)c(O)c(C=O)c2c(O)c1-c1c(C)cc2c(C(C)C)c(O)c(O)c(C=O)c2c1O`, the growth inhibition call is “inactive”.

For the compound `COCCCNC(=O)C1[C@@H]2CC[C@H]1CNC2` (some centres undefined), the growth inhibition call is “inactive”.

Take `Cc1ccc(-n2nccn2)c(C(=O)N2CCN(c3nc4cc(Cl)ccc4o3)CCC2C)c1` (centres undefined): the growth inhibition call was “inactive”.

Take `NCCc1ccc(S(=O)(=O)F)cc1`: the growth inhibition call was “inactive”.

Regarding `CC(N)(Cc1ccccc1)c1ccccc1` (centres undefined), the growth inhibition call is “inactive”.

For the compound `CN1CCN(C(=O)[C@H]2C[C@H]3CN(c4ncccn4)C[C@@H]3N2C)CC1`, the growth inhibition call is “inactive”.

As to `CCCC(C)(COC(N)=O)COC(=O)NC(C)C` (centres undefined), the growth inhibition call was “inactive”.

Take `CO[C@H]1[C@@H](O)C[C@@H](O[C@H]2[C@@H](O)C[C@@H](O[C@H]3[C@@H](O)C[C@@H](O[C@H]4CC[C@@]5(C)[C@@H](CC[C@H]6[C@@H]5C[C@@H](O)[C@@]5(C)[C@H](C7=CC(=O)OC7)CC[C@@]65O)C4)O[C@@H]3C)O[C@@H]2C)O[C@@H]1C`: the growth inhibition call was “inactive”.

As for `CC(C)Oc1ccc(CCN)cc1`, the growth inhibition call was “inactive”.

Consider `NCCNC[C@@H](N)CCCNC(N)=N[N+](=O)[O-].O=CC(F)(F)F`, for which the growth inhibition call was “inactive”.

`CC(=O)NN1Cc2ccccc2C1=N`: the growth inhibition call was “inactive”.

`CN1CCOC[C@]2(CCCNC2)C1`: the growth inhibition call was “inactive”.

With `O=C1CO[C@]2(CNCCOC2)CN1CC1CC1`, the growth inhibition call was “inactive”.

As for `COC1=CC(=O)OC(C=Cc2ccccc2)C1` (centres undefined), the growth inhibition call is “inactive”.

Turning to `Oc1cc(Cl)ccc1Oc1ccc(Cl)cc1Cl`, the growth inhibition call was “active”.

For `COc1cc2c(cc1-c1cc3cc4ccoc4cc3oc1=O)OCO2`, the growth inhibition call was “inactive”.

Turning to `CC(=O)N1CC[N+](C)(C)CC1`, the growth inhibition call was “inactive”.

For the compound `CC(=O)O[C@@]12CO[C@@H]1C[C@H](O)[C@@]1(C)C(=O)[C@H](O)C3=C(C)[C@@H](OC(=O)[C@H](O)[C@@H](NC(=O)c4ccccc4)c4ccccc4)C[C@](O)([C@@H](OC(=O)c4ccccc4)[C@H]21)C3(C)C`, the growth inhibition call was “inactive”.

Regarding `COCC(=O)N1C[C@@H]2c3ccccc3CN[C@@H]2C1`, the growth inhibition call was “inactive”.

Take `CCCN1CC(CSC)CC2c3cccc4[nH]cc(c34)CC21.CS(=O)(=O)O` (centres undefined): the growth inhibition call was “inactive”.

With `CN(C)[C@@H]1C(=O)[C@@H](C(N)=O)C(=O)[C@@]2(O)C(=O)[C@H]3C(=O)c4c(O)ccc(Cl)c4[C@@](C)(O)[C@H]3C[C@@H]12`, the growth inhibition call was “active”.

Turning to `Cn1ccnc1CN1CCC[C@]2(CCNC2=O)C1`, the growth inhibition call was “inactive”.

On to `C=C(C)C1Cc2c(ccc3c2OC2COc4cc(OC)c(OC)cc4C2C3=O)O1` (centres undefined), for which the growth inhibition call is “inactive”.

Consider `O=C1O[C@H]2CN[C@@H]1C2`, for which the growth inhibition call was “inactive”.

For the compound `[N-]=[N+]=NCc1ccccc1C[C@@]1(C(=O)NCCN2CCOCC2)N=C(c2ccc(OCCCO)cc2)O[C@@H]1c1ccccc1N=[N+]=[N-]`, the growth inhibition call is “inactive”.

Regarding `CN1C2CCC1CC(OC(=O)C(CO)c1ccccc1)C2` (centres undefined), the growth inhibition call was “inactive”.

`Br.COc1ccc2c(c1)C13CCCCC1C(C2)N(C)CC3` (centres undefined): the growth inhibition call was “inactive”.

In the case of `C[C@@H]1CN([C@H](C)CO)C(=O)CCCn2nncc2CO[C@H]1CN(C)C(=O)Oc1cccc2ccccc12`, the growth inhibition call was “inactive”.

For `Nc1ccc(-c2ccc(N)cc2)cc1`, the growth inhibition call is “inactive”.

Take `CN(C)C(=O)C(CCN1CCC(O)(c2ccc(Cl)cc2)CC1)(c1ccccc1)c1ccccc1.Cl`: the growth inhibition call is “inactive”.

Turning to `Cc1ccc(OC(=O)N(C)C[C@H]2OCc3ccccc3-c3c(n(C)c4ccccc34)C(=O)N([C@@H](C)CO)C[C@@H]2C)cc1`, the growth inhibition call was “inactive”.

As for `COC(=O)C[C@@H]1CC[C@@H]2NC[C@@H](O)COC[C@H]2O1`, the growth inhibition call is “inactive”.

For the compound `O=C(c1ccco1)N1C[C@H]2CN[C@@H](C2)C1`, the growth inhibition call was “inactive”.

With `CC(C)CC(CN)CC(=O)O` (centres undefined), the growth inhibition call is “inactive”.
